Measurements from the supplement of paper PMC11417369.
This is one part of the list.

The sequences below were run on PF3D7_0420300 AP2 domain 1 (GST-tagged) (assay: gcPBM binding intensity (ln(normalized median fluorescence intensity)); higher = stronger DNA binding).
Procedure, shortened: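 The binding buffer was 1× PBS containing 1% milk, 0.2 mg/ml BSA, 0.5% salmon testes DNA and 0.03% Triton X-100. In it, GST-tagged P. falciparum DNA-binding domains expressed in E. coli were applied for 1 h to an Agilent 4 × 180k array of primer-extended double-stranded 36-bp intergenic genomic probes plus negative controls. Binding intensity, read with Alexa488 anti-GST antibody and a 488 nm scan, is the highest Masliner-normalised natural-log median intensity across replicate spots of either probe orientation.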
In the case of “AAAAAAAATTTAATTGCACACAGGAAAATATAATTT [CACACA_site3810]”, the “gcPBM binding intensity (ln)” value is reported as 9.48. For “TAAATACAGAGGAAAATACACACGTATATATATAAA [CACACA_site3410]”, the “gcPBM binding intensity (ln)” value was 9.65. With “TTAATACCCAGACACACACACACAAAATAAAATACA [CACACA_site7968]” the “gcPBM binding intensity (ln)” value was 10.1. “TATAAATATACAAACACACATACAAACATATATATA [CACACA_site1120]” was tested, and the “gcPBM binding intensity (ln)” value was 9.91. In the case of “AAAAAAAAAAAAAAAAGTACAAAAAGAAGAAAAAAA [XGTACX_site6521]”, the “gcPBM binding intensity (ln)” value is reported as 9.45. “TTTTTTTTTTTTTTTTTTTTTTTATGTTCTTAAAAA [GTGCAC_negctrl_site62]” was tested, and the “gcPBM binding intensity (ln)” value was 8.31. “TTTTTTTTTTTTACGTGTACATAAATGTTAAGTAAT [XGTACX_site3901]” was tested, and the “gcPBM binding intensity (ln)” value was 9.11. “AAAATATAGGTATGCACACACATATACTTCTGTGCA [CACACA_site1409]” was tested, and the “gcPBM binding intensity (ln)” value was 9.62. “TATAAATATTTATGTACACACATATACATGTTGAAT [CACACA_site5684]” was tested, and the “gcPBM binding intensity (ln)” value was 9.5. “TTATATTCTTTTCTCTTTCTACTTTTTTTTTTTTTT [XGTACX_negctrl_site317]” was tested, and the “gcPBM binding intensity (ln)” value was 9.15. With “AAGAAAAACTTATATATATATATATATATATATATA [TGCATGCA_negctrl_site466]” the “gcPBM binding intensity (ln)” value was 9.31. “TCATACATGTATATGTGTACATATAATGTATATTCC [XGTACX_site6082]” was tested, and the “gcPBM binding intensity (ln)” value was 9.13. With “TTATACACAAAAAAAAAAATATATATATATATATAT [XGTACX_negctrl_site5]” the “gcPBM binding intensity (ln)” value was 9.04. With “TGTTGTATTGAAGCTAAAAAATGAGGCAAAAAAAAA [CACACA_negctrl_site1189]” the “gcPBM binding intensity (ln)” value was 9.15. “ATTTATGAGTAATACACACACTTGTGGATATATTAC [CACACA_site7735]” was tested, and the “gcPBM binding intensity (ln)” value was 9.55. For “ACTTCAAAAAAAAAAAAATATATATATATATATTAT [GTGCAC_negctrl_site158]”, the “gcPBM binding intensity (ln)” value was 8.82. With “TTTATATAATATAAATTTTTTTTGCAGTAATAAAAA [TGCATGCA_negctrl_site570]” the “gcPBM binding intensity (ln)” value was 8.57. “AGAGAAAAAAAAAATTGTACGTATGTAATAATATGC [XGTACX_site2981]” was tested, and the “gcPBM binding intensity (ln)” value was 9.55. “AGATATTATTTATATATTTATATATATATATAGATA [TGCATGCA_negctrl_site77]” was tested, and the “gcPBM binding intensity (ln)” value was 8.93. With “TAAATATCAAGACACACACACAAAAGTGAATAAATA [CACACA_site7723]” the “gcPBM binding intensity (ln)” value was 9.9. “TTCTTTTTAAATTACACACACATATATATATGTATA [CACACA_site3515]” was tested, and the “gcPBM binding intensity (ln)” value was 9.76. In the case of “AAAGTAAAAGAAAGCACACACACATGGATTTATGTA [CACACA_site5997]”, the “gcPBM binding intensity (ln)” value is reported as 10.1. In the case of “TATTTACACCCATGCGCACACATAAATAAATAATAG [CACACA_site5350]”, the “gcPBM binding intensity (ln)” value is reported as 9.44. For “TATATATATGTATGTGGTACTTATATTATATACATA [XGTACX_site4550]”, the “gcPBM binding intensity (ln)” value was 9.27. In the case of “ATACATATGGTGGATCGTACATATATATAATATGTA [XGTACX_site8631]”, the “gcPBM binding intensity (ln)” value is reported as 9.22. “ACAGAAAATAAAATTTGTACATATATAGAATAAAGA [XGTACX_site3014]” was tested, and the “gcPBM binding intensity (ln)” value was 9.43. With CCATGTAGTGAATAGGTGCATATCAAAAAAAAAAAA the “gcPBM binding intensity (ln)” value was 9.09. In the case of “ACAAAACTGTCTTTCACACAGAAATAAAAAAAAAAA [CACACA_site5829]”, the “gcPBM binding intensity (ln)” value is reported as 8.83. In the case of “TGATAAGGATGTGAATTACTCAAAGGAAGTAATCAT [CACACA_negctrl_site1432]”, the “gcPBM binding intensity (ln)” value is reported as 9.12. In the case of “AAATTTCATGGGTATTGTACATAATTTTATTATATA [XGTACX_site4988]”, the “gcPBM binding intensity (ln)” value is reported as 9.42. In the case of “ACATAAGATGAAAAATGTACATTCAAAAAATGAAAT [XGTACX_site3227]”, the “gcPBM binding intensity (ln)” value is reported as 9.26. In the case of “TTTTAAATATGCCATACACACTACTATATAATAAAT [CACACA_site5119]”, the “gcPBM binding intensity (ln)” value is reported as 9.37. For “AAAAAAAAAAAATATTGTAGAATATGATGACTTTGT [GTGCAC_negctrl_site554]”, the “gcPBM binding intensity (ln)” value was 9.15. For “ATTTTATTTTCATATGAACACACATATATATATTAT [CACACA_site8741]”, the “gcPBM binding intensity (ln)” value was 9.64. In the case of “CTGCGTTTAATATGCGTGCACCTTGGTTTTATATCT [GTGCAC_site9525]”, the “gcPBM binding intensity (ln)” value is reported as 9.55. In the case of “GTTAATATACTTAATACACACACGAATATATATAAA [CACACA_site1181]”, the “gcPBM binding intensity (ln)” value is reported as 9.86. With “ATTCTATACATATATATACACACGTAGTTTCTATTT [CACACA_site2223]” the “gcPBM binding intensity (ln)” value was 9.55. For “AAAAAAAAAAAGAAGGAAACATTTGACCAAAAATAT [GTGCAC_negctrl_site404]”, the “gcPBM binding intensity (ln)” value was 9.46. “ATATACTTACATATTACACACAATATTTTTAAATGT [CACACA_site3627]” was tested, and the “gcPBM binding intensity (ln)” value was 9.52. “AAGGGAATATACCTTACACACAAAAATGCAGATATA [CACACA_site1451]” was tested, and the “gcPBM binding intensity (ln)” value was 9.75. In the case of “AAAGTAAAAAAAAAAACATGCACATATTTACTTTAT [TGCATGCA_site849]”, the “gcPBM binding intensity (ln)” value is reported as 9.39. For “TTTTTTTTGGTTTTCATGCACACAATTTATAAATCT [CACACA_site3107]”, the “gcPBM binding intensity (ln)” value was 9.5. With “CTAATCAAAATAAATTAACACACAATTTTAATATTG [CACACA_site7887]” the “gcPBM binding intensity (ln)” value was 9.33. “ATAAAACATAAAAATCGTACAAAGGAGGATATAAGG [XGTACX_site420]” was tested, and the “gcPBM binding intensity (ln)” value was 9.74. “TGGAGGTCAGTTCACAGTACCCAGAAAACTCTACGA [XGTACX_site2561]” was tested, and the “gcPBM binding intensity (ln)” value was 9.01. With “AAAATGATGTTAATTACACACATCATCTCATAAACA [CACACA_site3017]” the “gcPBM binding intensity (ln)” value was 9.34. In the case of “ATTATTTATTATTTCTGTACGTATAAAAATAACATT [XGTACX_site1671]”, the “gcPBM binding intensity (ln)” value is reported as 9.28. “ATTTAAATTATAAAATGTACATTTAACAAATTTTAT [XGTACX_site770]” was tested, and the “gcPBM binding intensity (ln)” value was 8.94. “TGTAATCTGGAGAAAAGTACACAGTATCTGGTAGCT [XGTACX_site2039]” was tested, and the “gcPBM binding intensity (ln)” value was 9.15. “TAACATTATATATATTGTACATAGTAAATATTATAT [XGTACX_site5421]” was tested, and the “gcPBM binding intensity (ln)” value was 9.13. In the case of TTTAATTATTAAATGGTGCACTTGAAATATAAAAAT, the “gcPBM binding intensity (ln)” value is reported as 9.04. For “CTTTTAATGGTGTAAAGTACTTTCTTAAGGTTCAAA [XGTACX_site8423]”, the “gcPBM binding intensity (ln)” value was 9.05. For “TATACAACGTTAAGCACACACAAAAAAAATTTAATA [CACACA_site3086]”, the “gcPBM binding intensity (ln)” value was 9.67. With “AAGTTATATAAAGGAACACACATTTGATTTTATTTT [CACACA_site6814]” the “gcPBM binding intensity (ln)” value was 9.4. For “ATATATGGGGCGCAGGAAAAGAGTTTTGGAAATAAA [CACACA_negctrl_site1265]”, the “gcPBM binding intensity (ln)” value was 9.2. In the case of “TGAATTCATAGCAGTTGTACATTGCATGAAGAAACG [XGTACX_site3312]”, the “gcPBM binding intensity (ln)” value is reported as 9.04.
